# Out of some 310,000 compounds screened, about 14,000 (4.5%) showed an effect of 50% or more. Effects have a minus sign here. This is one part of the list.
# Target: human ether-à-go-go-related gene (hERG) potassium channel (human, UniProt Q12809)
# Assay: primary screen, population patch clamp on CHO cells stably expressing hERG
# 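Note: peak tail current of the secondary pulse compared with the same well before compound.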
# Chain of human ether-à-go-go-related gene (hERG) potassium channel (Q12809 whole entry, looked up): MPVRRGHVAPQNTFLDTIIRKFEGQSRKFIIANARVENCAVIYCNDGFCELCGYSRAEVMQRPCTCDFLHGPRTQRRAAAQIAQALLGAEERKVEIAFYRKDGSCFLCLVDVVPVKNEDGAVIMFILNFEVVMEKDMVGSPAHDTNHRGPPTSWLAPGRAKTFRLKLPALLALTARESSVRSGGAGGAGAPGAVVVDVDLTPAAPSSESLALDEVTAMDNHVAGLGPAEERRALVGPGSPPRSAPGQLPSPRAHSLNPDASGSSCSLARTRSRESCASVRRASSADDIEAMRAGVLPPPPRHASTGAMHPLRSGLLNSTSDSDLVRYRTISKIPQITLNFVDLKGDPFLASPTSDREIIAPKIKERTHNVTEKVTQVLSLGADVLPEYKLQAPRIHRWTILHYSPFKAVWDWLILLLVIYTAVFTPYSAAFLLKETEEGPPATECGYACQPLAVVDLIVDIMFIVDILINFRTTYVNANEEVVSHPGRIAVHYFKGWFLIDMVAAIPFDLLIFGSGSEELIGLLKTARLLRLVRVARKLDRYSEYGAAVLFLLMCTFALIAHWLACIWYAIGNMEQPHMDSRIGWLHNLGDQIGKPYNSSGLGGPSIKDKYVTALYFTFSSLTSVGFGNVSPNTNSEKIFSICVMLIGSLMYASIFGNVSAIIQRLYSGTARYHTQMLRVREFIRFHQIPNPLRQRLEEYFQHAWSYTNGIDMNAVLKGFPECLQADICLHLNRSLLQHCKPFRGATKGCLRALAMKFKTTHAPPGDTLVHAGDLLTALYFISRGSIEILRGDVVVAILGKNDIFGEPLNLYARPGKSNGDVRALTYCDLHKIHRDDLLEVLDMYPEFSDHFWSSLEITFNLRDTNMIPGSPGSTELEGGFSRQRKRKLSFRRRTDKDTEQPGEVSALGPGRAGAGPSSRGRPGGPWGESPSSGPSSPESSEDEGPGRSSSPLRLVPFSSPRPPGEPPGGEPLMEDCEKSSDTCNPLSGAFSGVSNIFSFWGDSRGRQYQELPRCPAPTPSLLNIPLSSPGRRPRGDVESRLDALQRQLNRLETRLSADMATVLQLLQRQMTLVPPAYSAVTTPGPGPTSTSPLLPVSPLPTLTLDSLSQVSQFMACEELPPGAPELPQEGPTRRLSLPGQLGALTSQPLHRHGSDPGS
row,SMILES,"hERG current change (%, negative = inhibition) at 10uM [%]"
1,O=C(COc1nncc2ccccc12)Nc1c(F)c(F)c(F)c(F)c1F,6.16
2,COc1ccc(-c2nc(-c3ccccc3)ncc2S(C)(=O)=O)cc1,13
3,C[C@@H]1CN(Cc2nc(-c3cnccn3)no2)C[C@H](C)O1,25.4
4,CCOc1ccc(OCC)c(NC(=O)c2nnn(CC(=O)Nc3cc(C)cc(C)c3)c2N)c1,17.4
5,COc1ccc(C2CC(c3ccc(OC)cc3OC(C)=O)=NN2C(=O)c2ccccc2)cc1 (stereo not shown),-20.6
6,CC(O)CC(=O)O (stereo not shown),2.13
7,O=C(NCCNC(=O)c1cc(OCC(F)(F)F)ccc1OCC(F)(F)F)Nc1ccc(Cl)cc1,-10.1
8,CC(=O)c1cnc(Nc2nc(C)c3cc(C)c(C)cc3n2)nc1C,-0.101
9,CC(=O)N(C(C)=O)c1c(N2CCOCC2)c2ccccc2oc1=O,0.993
10,CC1CCN(S(=O)(=O)c2cccc(-c3nnc(-c4cccnc4)o3)c2)CC1,-14.7
11,CCOc1cc(/C=C2\C(=O)N(c3nc(-c4ccc(Br)cc4)cs3)N=C2c2ccccc2)ccc1O,4.44
12,O=C(N/N=C/c1ccc2c(c1)OCO2)c1ccc(Cn2cc([N+](=O)[O-])cn2)o1,-16.7
13,O=[N+]([O-])c1cc(C(F)(F)F)ccc1Cl,22.6
14,O=C(NCC1CCCN1S(=O)(=O)c1cccs1)c1ccccc1F (stereo not shown),-2.03
15,NC(=O)c1nn(-c2ccc(Oc3ccccc3)cc2)c(=O)cc1O,12.8
16,Cc1ccc2c(c1)nnn2C1CCN(C(=O)C23CC4CC(CC(C4)C2)C3)CC1,1.11
17,O=C(O)CC12CC3CC(C1)CC(n1ncc(NCc4ccccc4Cl)c(Cl)c1=O)(C3)C2,-0.897
18,CCOC(=O)/C(=N/Nc1ccc(Cl)cc1)S(=O)(=O)c1ccc(Cl)cc1,11.4
19,COc1ccccc1NC(=O)CSc1nnc(CNC(=O)c2cccs2)o1,5.28
20,Cc1cccc(NC(=O)CSCC(=O)NCc2cccc(C(F)(F)F)c2)c1,9.77
21,COc1ccc(S(=O)(=O)O/N=C2\CCSc3ccc(C)cc32)cc1,3.61
22,CSc1ccc(S(=O)(=O)N2CCC(C(=O)NCCN3CCOCC3)CC2)cc1,9.53

row,SMILES,"hERG current change (%, negative = inhibition) at 10uM [%]"
1,CN(C)CCN(Cc1ccc(Cl)cc1)c1ccccn1.Cl,-74.4
2,Cc1ccc(S(=O)(=O)NC(=O)c2ccc(F)cc2)c(C)c1,10.5
3,Cc1ccc2nsnc2c1S(=O)(=O)N(Cc1ccco1)Cc1cc2cccc(C)c2[nH]c1=O,4.38
4,COc1ccc(-c2c(C#N)c(SCC(=O)c3cc4ccccc4oc3=O)nc(C)c2C(=O)Nc2ccccc2)cc1,-4.97
5,CC(C)(C)/C(O)=C(/C#N)c1nc2ccccc2[nH]1,-10.9
6,COc1ccc(N2CCN(CCNC(=O)Nc3cc(Cl)ccc3Cl)CC2)cc1,15.6
7,CCOc1ncccc1C(=O)OCC(=O)c1cccc(Br)c1,-18.2
8,Cn1c(=O)c2c(nc(CN3CCN(CCO)CC3)n2Cc2ccccc2Cl)n(C)c1=O,2.31
9,O=C(c1ccc(F)cc1)N1CCCC(N2CCN(Cc3ccc4c(c3)OCO4)CC2)C1 (stereo not shown),-22.2
10,Cc1ccc2nc(SCC(=O)c3ccc(O)cc3O)[nH]c2c1,1.14
11,O=C(CSc1nc2ccc(Cl)cc2[nH]1)c1ccc2c(c1)OCO2,-0.302
12,COc1cc(C(=O)OCC(=O)Nc2ccc(F)cc2F)cc(OC)c1OC,-5.93
13,CS(=O)(=O)c1ccccc1C(=O)Nc1nc2ccccc2[nH]1,13.8
14,CNC(=O)C1CCCN1S(=O)(=O)c1ccc(OC)cc1 (stereo not shown),24.2
15,Cc1cc(SCC(=O)Nc2ccc(O)cc2)n2ncc(-c3ccccc3)c2n1,4.7
16,Cc1cc(Cl)ccc1OCC(=O)NN1C(=O)C2C3C=CC(C3)C2C1=O (stereo not shown),5.12
17,CC1C(=O)N(Cc2ccc([N+](=O)[O-])cc2)c2ccccc2N1C(=O)C1CC1 (stereo not shown),-19.4
18,O=C(O)c1ccc(CNC(=O)c2ccccc2NC(=O)c2cccc([N+](=O)[O-])c2)cc1,6.34
19,O=C(c1ccc2[nH]c(=O)c(=O)[nH]c2c1)N1CCc2ccccc2C1,17.1
20,COc1ccc(CNC(=O)COC(=O)CCS(=O)(=O)c2ccc(C)cc2)cc1OC,16.9
21,Cc1ccc(S(=O)(=O)NC(CC(C)C)C(=O)NCc2ccco2)cc1 (stereo not shown),-4.34
22,Fc1ccccc1N1CCN(C(c2ccncc2)c2nnnn2C2CCCC2)CC1 (stereo not shown),-38.8

row,SMILES,"hERG current change (%, negative = inhibition) at 10uM [%]"
1,COc1ccccc1S(=O)(=O)Cc1ccc(C(=O)N2CCN(c3ccc(C)cc3)C(C)C2)o1 (stereo not shown),-24.6
2,Cn1ncc2c(Nc3ccc([N+](=O)[O-])cc3)nc(Cl)nc21,18.9
3,Cc1cc(C(=O)N/N=C2\CC(=O)CC(C)(C)C2)c2ccccc2n1,23
4,CC(=O)c1sc(NC(=O)C(C)C)nc1C,-0.878
5,O=C(NN1C(=O)/C(=C/c2ccc(O)c([N+](=O)[O-])c2)SC1=S)c1ccccc1Cl,39.8
6,O=C(Nc1ccc(Br)cc1Cl)c1cnccn1,5.88
7,CCOCCCN(C(=O)c1snc(C(N)=O)c1N)C(C(=O)NC1CCCC1)c1ccc(O)cc1 (stereo not shown),3.52
8,COc1ccc(C(=O)N(C)Cc2ccccc2)cc1Br,-8.29
9,CC(=O)c1ccc(NC(=O)c2cc(=O)[nH]c3ccccc23)cc1,2.57
10,COc1ccc(OC)c2sc(N3CCCCC3)nc12,8.42
11,Cc1cnn(C(=S)NCc2ccc(Cl)cc2)c1,-21.1
12,CCN(CC)C(=O)Cn1cc(C(=O)C(=O)NCc2ccccn2)c2ccccc21,12.3
13,Cc1ccc(O)c(-c2cc(C(=O)NCc3ccccc3)[nH]n2)c1,-6.47
14,COc1ccccc1C(=O)N1CCN(C(=O)Cc2ccccc2)CC1,16.3
15,N#C/C(=C\Nc1ccccc1SC(F)(F)F)c1nc(-c2ccccc2)cs1,10.8
16,COc1cccc(-c2nn(-c3ccccc3)cc2CN2CCCO2)c1,-5.81
17,CC(=O)Nc1cccc(C(=O)/C=C/c2ccc(C)cc2)c1,-23.6
18,Cc1ccc(S(=O)(=O)N2CCCCC2)cc1NC(=O)CSc1nnc(N)s1,-20.2
19,O=C(COc1cccc(C(F)(F)F)c1)NCCCN1CCCC1=O,-9.86
20,O=C(Cc1ccccc1)Nc1ccc(C(=O)NCc2ccccc2)cc1,11.2
21,COC(=O)c1ccc(NC(=O)C(=O)N2CCCC2)cc1,-3.97
22,CC(OC(=O)C1CC(=O)N(Cc2ccccc2)C1)C(=O)Nc1cccc(C#N)c1 (stereo not shown),-0.693

row,SMILES,"hERG current change (%, negative = inhibition) at 10uM [%]"
1,CC(=O)Nc1ccc(Nc2ccc3nonc3c2[N+](=O)[O-])cc1,8.42
2,O=C(O)c1nccnc1C(=O)NCc1csc2ccc(Cl)cc12,19
3,COC(=O)C1=C2SCC(=O)N2C(N)=C(C#N)C1,2.39
4,Cc1cccnc1NC(=O)COc1ccc2c(c1)CCC2,3.73
5,O=C(NCc1ccccc1)/C(NC(=O)c1ccccc1)=C(/Sc1ccccn1)c1ccccc1,12.3
6,O=C(O)C[C@H]1c2ccccc2S(=O)(=O)N1C1CCCC1,18.4
7,CC(C)N(Cc1ccccc1)C(=O)COC(=O)C1CCN(S(=O)(=O)c2ccc3c(c2)OCCO3)CC1,-9.7
8,CC(C)CCNC(=O)C(C)N(Cc1ccc(F)cc1)C(=O)c1ccc(CN2CCCCC2)o1 (stereo not shown),-30.1
9,CCn1c(=O)c2cc(C(=O)NCCCOC)sc2c2ccccc21,7.3
10,CCOC(=O)c1c(N)c(C#N)c2n1CCCCC2,8.65
11,CC(C(=O)N1CCOCC1)c1ccc([N+](=O)[O-])cc1 (stereo not shown),9.94
12,CC(Sc1nc(-c2ccccc2)cc(C(F)(F)F)n1)C(=O)N1CCCCC1 (stereo not shown),-17.9
13,COc1cccc(-c2csc(N3CCN(CC(=O)NNC(=O)c4ccc(Cl)cc4)CC3)n2)c1,7.95
14,COC(=O)c1c(C)nc(C)c(C(=O)OC)c1-c1ccc(OC)c(OC)c1,16.8
15,CC(C)[C@H](NC(=O)N1c2ccccc2NC(=O)[C@@H]1C(C)C)C(=O)N[C@H](Cc1ccccc1)C(=O)O,-1.33
16,Cc1ccc(OCC(=O)N2CCN(C3=NS(=O)(=O)c4ccccc43)CC2)cc1,-60.8
17,NC(=O)C[N+]1(CC#CC(O)(c2ccccc2)c2ccccc2)CCCC1.[I-],9.8
18,CCCNC(=O)CS(=O)(=O)Cc1nc(-c2cccc(OC)c2)oc1C,-70
19,CCOc1ccccc1CNC(=O)c1ccc2c(c1)N(CC)CCS2,-13.8

# — PMC4336329 (PLoS ONE, 2015)
